# Results reported in the supplement of paper PMC12217912.
# This is one part of the list. The full chains were built here from the parent and the listed change. Inactive controls read about 0.05.
# B1: TEV protease; numbered along this chain (parent)
# chain: MGESLFKGPRDYNPISSSICHLTNESDGHTTSLYGIGFGPFIITNKHLFRRNNGTLVVQSLHGVFKVKDTTTLQQHLVDGRDMIIIRMPKDFPPFPQKLKFREPQREERICLVTTNFQTKSMSSMVSDTSCTFPSGDGIFWKHWIQTKDGQCGSPLVSTRDGFIVGIHSASNFTNTNNYFTSVPKNFMELLTNQEAQQWVSGWRLNADSVLWGGHKVFMVKPEEPFQPVKEATQL
# Variants of: B1
# Test: raw area under fraction-flipped curve 0-4 h after induction (AUC4h, not background-subtracted), DNA-recorder readout of cleavage of the substrate (dimensionless); higher = more cleavage of the substrate by the protease variant
# Conditions: temperature: 34 °C; time window: 0-4 h after rhamnose induction
# Method: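 In vivo DNA recorder in E. coli TOP10(DE3) ΔrhaA at 34 °C. Each TEVp single-site mutant (parent TEVp 0) is paired with a single-site variant of the 7-mer TEVs (canonical ENLYFQ|S). The substrate sits between flexible linkers in a Bxb1-sfGFP-TEVs-SsrA fusion, so cleavage stabilises Bxb1 and speeds flipping of a recombination array, read by NGS. The value is the raw area under the fraction-flipped curve over 0-4 h after rhamnose induction (AUC4h), with ≥20 reads per time point. It is not background-subtracted; inactive controls average about 0.047.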
# 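Further: Bxb1 expression induced with 0.2% (w/v) L-rhamnose at OD600 near 0.5, cultures sampled hourly, flipped fraction per protease–substrate barcode pair counted by paired-end Illumina sequencing.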
Variant,area with substrate CNLYFQS,area with substrate DNLYFQS,area with substrate FNLYFQS,area with substrate GNLYFQS,area with substrate HNLYFQS,area with substrate INLYFQS,area with substrate KNLYFQS,area with substrate LNLYFQS,area with substrate NNLYFQS,area with substrate PNLYFQS,area with substrate SNLYFQS,area with substrate TNLYFQS,area with substrate VNLYFQS,area with substrate WNLYFQS,area with substrate MNLYFQS,area with substrate QNLYFQS,area with substrate RNLYFQS,area with substrate YNLYFQS
MGESLFKGPRDYNPISSSICHLTNEEDGHTTSLYGIGFGPFIITNKHLFRRNNGTLVVQSLHGVFKVKDTTTLQQHLVDGRDMIIIRMPKDFPPFPQKLKFREPQREERICLVTTNFQTKSMSSMVSDTSCTFPSGDGIFWKHWIQTKDGQCGSPLVSTRDGFIVGIHSASNFTNTNNYFTSVPKNFMELLTNQEAQQWVSGWRLNADSVLWGGHKVFMVKPEEPFQPVKEATQL [S26E],0.0629,0.0733,0.0669,0.0532,0.0626,0.0634,0.0706,0.0569,0.0693,0.0725,0.07,0.0621,0.0716,0.0682,,,,
MGESLFKGPRDYNPISSSICHLTNEQDGHTTSLYGIGFGPFIITNKHLFRRNNGTLVVQSLHGVFKVKDTTTLQQHLVDGRDMIIIRMPKDFPPFPQKLKFREPQREERICLVTTNFQTKSMSSMVSDTSCTFPSGDGIFWKHWIQTKDGQCGSPLVSTRDGFIVGIHSASNFTNTNNYFTSVPKNFMELLTNQEAQQWVSGWRLNADSVLWGGHKVFMVKPEEPFQPVKEATQL [S26Q],0.0409,0.0668,0.0612,0.0646,0.0527,,0.0438,,0.0706,0.0623,0.0693,,,0.0609,0.0575,,,
MGESLFKGPRDYNPISSSICHLTNERDGHTTSLYGIGFGPFIITNKHLFRRNNGTLVVQSLHGVFKVKDTTTLQQHLVDGRDMIIIRMPKDFPPFPQKLKFREPQREERICLVTTNFQTKSMSSMVSDTSCTFPSGDGIFWKHWIQTKDGQCGSPLVSTRDGFIVGIHSASNFTNTNNYFTSVPKNFMELLTNQEAQQWVSGWRLNADSVLWGGHKVFMVKPEEPFQPVKEATQL [S26R],0.0639,0.0641,,0.0558,0.0584,,,0.0585,,0.0552,0.0615,0.0544,0.057,0.0582,0.0746,0.0468,0.0616,0.0546
MGESLFKGPRDYNPISSSICHLTNESGGHTTSLYGIGFGPFIITNKHLFRRNNGTLVVQSLHGVFKVKDTTTLQQHLVDGRDMIIIRMPKDFPPFPQKLKFREPQREERICLVTTNFQTKSMSSMVSDTSCTFPSGDGIFWKHWIQTKDGQCGSPLVSTRDGFIVGIHSASNFTNTNNYFTSVPKNFMELLTNQEAQQWVSGWRLNADSVLWGGHKVFMVKPEEPFQPVKEATQL [D27G],0.0597,0.0616,,,,0.049,0.073,0.0655,,,,,0.0455,0.0667,0.0671,,0.06,
MGESLFKGPRDYNPISSSICHLTNESSGHTTSLYGIGFGPFIITNKHLFRRNNGTLVVQSLHGVFKVKDTTTLQQHLVDGRDMIIIRMPKDFPPFPQKLKFREPQREERICLVTTNFQTKSMSSMVSDTSCTFPSGDGIFWKHWIQTKDGQCGSPLVSTRDGFIVGIHSASNFTNTNNYFTSVPKNFMELLTNQEAQQWVSGWRLNADSVLWGGHKVFMVKPEEPFQPVKEATQL [D27S],0.0322,0.0678,0.0597,,0.0475,0.0688,0.0585,0.0638,0.0607,0.0548,0.0726,0.0652,0.0924,0.057,0.0651,,,0.0511
MGESLFKGPRDYNPISSSICHLTNESDQHTTSLYGIGFGPFIITNKHLFRRNNGTLVVQSLHGVFKVKDTTTLQQHLVDGRDMIIIRMPKDFPPFPQKLKFREPQREERICLVTTNFQTKSMSSMVSDTSCTFPSGDGIFWKHWIQTKDGQCGSPLVSTRDGFIVGIHSASNFTNTNNYFTSVPKNFMELLTNQEAQQWVSGWRLNADSVLWGGHKVFMVKPEEPFQPVKEATQL [G28Q],0.0543,0.0377,0.0611,0.0478,0.0643,0.0529,0.0698,0.0609,0.0901,,0.0668,0.0594,0.0696,0.0577,,,0.0636,0.0577
MGESLFKGPRDYNPISSSICHLTNESDGITTSLYGIGFGPFIITNKHLFRRNNGTLVVQSLHGVFKVKDTTTLQQHLVDGRDMIIIRMPKDFPPFPQKLKFREPQREERICLVTTNFQTKSMSSMVSDTSCTFPSGDGIFWKHWIQTKDGQCGSPLVSTRDGFIVGIHSASNFTNTNNYFTSVPKNFMELLTNQEAQQWVSGWRLNADSVLWGGHKVFMVKPEEPFQPVKEATQL [H29I],0.0797,0.0321,0.0697,0.0644,0.0732,,0.0518,0.0644,,0.0656,,0.0726,,0.0513,0.0698,,,
MGESLFKGPRDYNPISSSICHLTNESDGMTTSLYGIGFGPFIITNKHLFRRNNGTLVVQSLHGVFKVKDTTTLQQHLVDGRDMIIIRMPKDFPPFPQKLKFREPQREERICLVTTNFQTKSMSSMVSDTSCTFPSGDGIFWKHWIQTKDGQCGSPLVSTRDGFIVGIHSASNFTNTNNYFTSVPKNFMELLTNQEAQQWVSGWRLNADSVLWGGHKVFMVKPEEPFQPVKEATQL [H29M],0.0748,0.0957,0.0741,0.0552,0.07,0.061,,0.0652,,0.0629,0.084,0.0418,,0.0525,0.0634,,,0.0904
MGESLFKGPRDYNPISSSICHLTNESDGPTTSLYGIGFGPFIITNKHLFRRNNGTLVVQSLHGVFKVKDTTTLQQHLVDGRDMIIIRMPKDFPPFPQKLKFREPQREERICLVTTNFQTKSMSSMVSDTSCTFPSGDGIFWKHWIQTKDGQCGSPLVSTRDGFIVGIHSASNFTNTNNYFTSVPKNFMELLTNQEAQQWVSGWRLNADSVLWGGHKVFMVKPEEPFQPVKEATQL [H29P],0.0533,0.0877,,0.0452,0.0589,,0.0716,0.0485,0.0614,,0.0529,0.0584,,0.0505,,0.0651,0.0733,0.063
MGESLFKGPRDYNPISSSICHLTNESDGTTTSLYGIGFGPFIITNKHLFRRNNGTLVVQSLHGVFKVKDTTTLQQHLVDGRDMIIIRMPKDFPPFPQKLKFREPQREERICLVTTNFQTKSMSSMVSDTSCTFPSGDGIFWKHWIQTKDGQCGSPLVSTRDGFIVGIHSASNFTNTNNYFTSVPKNFMELLTNQEAQQWVSGWRLNADSVLWGGHKVFMVKPEEPFQPVKEATQL [H29T],0.0769,0.0843,,0.0678,,0.0653,,0.0797,0.0614,,0.0768,,0.0644,0.057,0.0706,0.0632,,
MGESLFKGPRDYNPISSSICHLTNESDGHRTSLYGIGFGPFIITNKHLFRRNNGTLVVQSLHGVFKVKDTTTLQQHLVDGRDMIIIRMPKDFPPFPQKLKFREPQREERICLVTTNFQTKSMSSMVSDTSCTFPSGDGIFWKHWIQTKDGQCGSPLVSTRDGFIVGIHSASNFTNTNNYFTSVPKNFMELLTNQEAQQWVSGWRLNADSVLWGGHKVFMVKPEEPFQPVKEATQL [T30R],0.0507,0.0803,0.0695,,0.0695,,,0.038,0.0738,0.076,0.0674,0.0653,,0.051,0.0689,0.0962,,
MGESLFKGPRDYNPISSSICHLTNESDGHTVSLYGIGFGPFIITNKHLFRRNNGTLVVQSLHGVFKVKDTTTLQQHLVDGRDMIIIRMPKDFPPFPQKLKFREPQREERICLVTTNFQTKSMSSMVSDTSCTFPSGDGIFWKHWIQTKDGQCGSPLVSTRDGFIVGIHSASNFTNTNNYFTSVPKNFMELLTNQEAQQWVSGWRLNADSVLWGGHKVFMVKPEEPFQPVKEATQL [T31V],0.0771,0.0787,0.052,0.0754,0.0698,0.0813,0.103,0.0704,0.085,0.0847,0.0729,0.0703,,0.0394,0.056,,,0.0506
MGESLFKGPRDYNPISSSICHLTNESDGHTTSHYGIGFGPFIITNKHLFRRNNGTLVVQSLHGVFKVKDTTTLQQHLVDGRDMIIIRMPKDFPPFPQKLKFREPQREERICLVTTNFQTKSMSSMVSDTSCTFPSGDGIFWKHWIQTKDGQCGSPLVSTRDGFIVGIHSASNFTNTNNYFTSVPKNFMELLTNQEAQQWVSGWRLNADSVLWGGHKVFMVKPEEPFQPVKEATQL [L33H],0.0626,0.0568,0.0647,0.0549,,,0.0573,0.0662,0.0589,0.061,,0.0611,,0.0613,0.0412,,0.0556,0.0751
MGESLFKGPRDYNPISSSICHLTNESDGHTTSRYGIGFGPFIITNKHLFRRNNGTLVVQSLHGVFKVKDTTTLQQHLVDGRDMIIIRMPKDFPPFPQKLKFREPQREERICLVTTNFQTKSMSSMVSDTSCTFPSGDGIFWKHWIQTKDGQCGSPLVSTRDGFIVGIHSASNFTNTNNYFTSVPKNFMELLTNQEAQQWVSGWRLNADSVLWGGHKVFMVKPEEPFQPVKEATQL [L33R],0.0567,0.0702,,0.0571,0.0685,,,,0.0614,,0.0603,0.0677,,0.0516,0.0643,,0.065,0.05
MGESLFKGPRDYNPISSSICHLTNESDGHTTSYYGIGFGPFIITNKHLFRRNNGTLVVQSLHGVFKVKDTTTLQQHLVDGRDMIIIRMPKDFPPFPQKLKFREPQREERICLVTTNFQTKSMSSMVSDTSCTFPSGDGIFWKHWIQTKDGQCGSPLVSTRDGFIVGIHSASNFTNTNNYFTSVPKNFMELLTNQEAQQWVSGWRLNADSVLWGGHKVFMVKPEEPFQPVKEATQL [L33Y],0.0634,0.0555,0.0445,,0.0576,,0.0545,0.0652,0.0693,0.0592,0.0514,0.061,0.0534,0.0677,0.0625,,0.062,0.0601
MGESLFKGPRDYNPISSSICHLTNESDGHTTSLYGIAFGPFIITNKHLFRRNNGTLVVQSLHGVFKVKDTTTLQQHLVDGRDMIIIRMPKDFPPFPQKLKFREPQREERICLVTTNFQTKSMSSMVSDTSCTFPSGDGIFWKHWIQTKDGQCGSPLVSTRDGFIVGIHSASNFTNTNNYFTSVPKNFMELLTNQEAQQWVSGWRLNADSVLWGGHKVFMVKPEEPFQPVKEATQL [G37A],0.0646,0.102,,,0.053,,0.0638,,,0.0709,0.0659,0.0737,,0.061,,,,
MGESLFKGPRDYNPISSSICHLTNESDGHTTSLYGIFFGPFIITNKHLFRRNNGTLVVQSLHGVFKVKDTTTLQQHLVDGRDMIIIRMPKDFPPFPQKLKFREPQREERICLVTTNFQTKSMSSMVSDTSCTFPSGDGIFWKHWIQTKDGQCGSPLVSTRDGFIVGIHSASNFTNTNNYFTSVPKNFMELLTNQEAQQWVSGWRLNADSVLWGGHKVFMVKPEEPFQPVKEATQL [G37F],0.0497,0.067,,0.0706,0.0541,0.0452,0.0576,0.0621,0.0573,0.0561,0.0431,0.0517,0.0604,0.0511,0.0523,0.0735,,0.0461
MGESLFKGPRDYNPISSSICHLTNESDGHTTSLYGISFGPFIITNKHLFRRNNGTLVVQSLHGVFKVKDTTTLQQHLVDGRDMIIIRMPKDFPPFPQKLKFREPQREERICLVTTNFQTKSMSSMVSDTSCTFPSGDGIFWKHWIQTKDGQCGSPLVSTRDGFIVGIHSASNFTNTNNYFTSVPKNFMELLTNQEAQQWVSGWRLNADSVLWGGHKVFMVKPEEPFQPVKEATQL [G37S],0.0576,0.0597,0.0606,,0.0389,,,,0.0519,0.0662,,0.0547,0.057,,,,0.044,
